For six substances, binding results are on record in paper PMC4729865.

The chains behind the UniProt entries cited, without tags or fusion partners. Where a name states a change or a piece, a line headed by the entry shows the natural chain unless it says otherwise. A line that says so, or that is headed by a name, gives the form on record, which may keep a tag or linker.
UniProt Q9H081: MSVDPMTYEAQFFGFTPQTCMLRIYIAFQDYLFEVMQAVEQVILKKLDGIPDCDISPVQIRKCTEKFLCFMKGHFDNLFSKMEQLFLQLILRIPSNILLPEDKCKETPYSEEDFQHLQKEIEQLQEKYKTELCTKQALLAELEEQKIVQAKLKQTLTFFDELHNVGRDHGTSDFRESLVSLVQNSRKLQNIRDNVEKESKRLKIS
Mis12 with deletion of amino acids 111–140 (Q9H081, form named): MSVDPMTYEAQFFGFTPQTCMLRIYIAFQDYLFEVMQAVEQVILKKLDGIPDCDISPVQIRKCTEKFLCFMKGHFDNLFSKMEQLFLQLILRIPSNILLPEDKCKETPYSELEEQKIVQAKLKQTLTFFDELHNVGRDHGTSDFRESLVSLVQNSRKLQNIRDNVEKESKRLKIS

These are yes or no findings as the source states them, for the method shown. For some of these results: In cells and extracts the contact can be indirect. Some binding calls cover weakened binding; strength is not graded here. Where a sequence is shown, tags or fusion partners need not be part of it.

In test [1] the target is T1, Cep57, yeast two-hybrid fusion (human) (UniProt Q86XR8).
T1 sequence: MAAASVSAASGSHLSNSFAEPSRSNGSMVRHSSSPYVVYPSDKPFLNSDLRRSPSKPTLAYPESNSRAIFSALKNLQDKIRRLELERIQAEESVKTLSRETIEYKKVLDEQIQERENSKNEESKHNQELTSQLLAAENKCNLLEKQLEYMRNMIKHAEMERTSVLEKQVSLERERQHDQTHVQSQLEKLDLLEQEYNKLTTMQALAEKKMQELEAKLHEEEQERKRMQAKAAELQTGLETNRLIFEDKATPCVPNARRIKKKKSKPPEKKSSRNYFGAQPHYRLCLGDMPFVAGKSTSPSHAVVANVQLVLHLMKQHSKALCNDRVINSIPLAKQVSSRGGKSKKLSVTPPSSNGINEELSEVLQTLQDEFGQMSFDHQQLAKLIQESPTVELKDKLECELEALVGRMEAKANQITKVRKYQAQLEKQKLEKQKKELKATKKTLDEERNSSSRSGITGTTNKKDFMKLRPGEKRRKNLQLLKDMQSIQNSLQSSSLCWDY
Description: two-hybrid; Matchmaker system; bait vector pGBKT7 and prey vector pGADT7 co-transformed into AH109 yeast; growth on quadruple-selective medium (Trp-, Leu-, His-, Ade-), 2-5 days at 30 °C.

The target in test [2] is T2, MBP-Cep57 (1–242 amino acids) (human) (UniProt Q86XR8).
T2 sequence: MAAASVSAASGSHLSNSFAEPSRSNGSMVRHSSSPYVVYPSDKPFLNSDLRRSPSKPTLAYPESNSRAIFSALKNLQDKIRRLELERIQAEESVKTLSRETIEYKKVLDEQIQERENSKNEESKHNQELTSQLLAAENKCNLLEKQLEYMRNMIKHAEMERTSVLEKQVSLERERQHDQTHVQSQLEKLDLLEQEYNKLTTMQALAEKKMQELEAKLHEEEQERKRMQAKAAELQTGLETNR
Put plainly: pull-down; about 0.2 μg MBP-Cep57 fragment coupled to Amylose Magnetic beads incubated with about 0.2 μg purified, eluted GST-tagged protein; washed five times with lysis buffer; western blotting with anti-GST; both purified. On the technique in general: A western blot detects proteins with antibodies after separation by electrophoresis.

Test [3] concerns the target T3, GST-Cep57 (1–242 amino acids) (human) (UniProt Q86XR8).
T3 sequence: T2 sequence
Put plainly: pull-down; GST-tagged Cep57 fragments on Glutathione Sepharose 4B beads incubated with lysates of HEK293T cells overexpressing the partner, 4 h at 4 °C; western blotting; only the target purified.

The target of the next test is T4, Cep57-GFP (human) (UniProt Q86XR8).
T4 sequence: T1 sequence
Put plainly: co-IP; lysates of co-transfected HEK293T cells (150 mM NaCl, 1 mM MgCl2, 50 mM Hepes pH 7.4, 1 mM EGTA, 0.5% Triton X-100); antibody 4 h at 4 °C, protein A-Sepharose 2 h; western blotting.

In the case of “Mis12 L132G, yeast two-hybrid fusion (from UniProt Q9H081 1-205)”, in test [1], the binding result is recorded as “no binding”.

Consider “Mis12 with deletion of amino acids 111–140 (from UniProt Q9H081 1-205)”, for which, in test [2], the binding result was “no binding”.

As to “Mis12 with deletion of amino acids 131–140, yeast two-hybrid fusion (from UniProt Q9H081 1-205)”, the binding result in test [1] is recorded as “no binding”.

On to “Mis12, yeast two-hybrid fusion (from UniProt Q9H081 1-205)”, for which the binding result in test [1] is given as “binds”.

In the case of Mis12-HA (from UniProt Q9H081 1-205), the binding entry (in test [3]; with Cep57-GFP (human)) was “binds” throughout.

For the substance “GST-Mis12 L132G (from UniProt Q9H081 1-205)”, the binding result in test [2] is reported as “no binding”.
